# Test results as given in the supplement of paper PMC8728848.
# This is one part of the list.
# B1: CAA (Caragana arborescens) (protein)
# chain: VAVEFDTFDNPDWDPRTKHIGIDVNSIRSNKTTQWGFWNRQVADVDISYEASSKTLNVSLYYPGESYIVTDVVDLKDILPEWVRIGF
# Key:
# Test in all cases: glycan array binding signal (z-score within array); higher = stronger binding
# Details in all cases: glycan notation: IUPAC condensed, linker removed
# [1] = molecular target: Neu5Ac(a2-6)GlcNAc(b1-4)GlcNAc
# How it was run: (§1)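 The binding signal is a Z-score computed within each array. Data were drawn from 3228 arrays in the Consortium for Functional Glycomics database, restricted to those with a known protein sequence. Scores were averaged over arrays of the same protein sequence at different concentrations or buffers, and over linkers, and negative values can be taken as non-binding.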
# [2] = molecular target: Neu5Ac(a2-6)GlcNAc(b1-4)GlcNAc(b1-4)GlcNAc
# How it was run: as §1
# Neu5Ac(a2-8)Neu5Ac = molecular target: Neu5Ac(a2-8)Neu5Ac
# How it was run: as §1
# [3] = molecular target: Neu5Ac(a2-8)Neu5Ac(a2-3)Gal(b1-3)GalNAc(b1-4)[Neu5Ac(a2-3)]Gal(b1-4)Glc
# How it was run: as §1
# [4] = molecular target: Neu5Ac(a2-8)Neu5Ac(a2-3)Gal(b1-3)GalNAc(b1-4)[Neu5Ac(a2-8)Neu5Ac(a2-3)]Gal(b1-4)Glc
# How it was run: as §1
# [5] = molecular target: Neu5Ac(a2-8)Neu5Ac(a2-3)Gal(b1-4)Glc
# How it was run: as §1
# [6] = molecular target: Neu5Ac(a2-8)Neu5Ac(a2-3)Gal(b1-4)GlcNAc
# How it was run: as §1
# [7] = molecular target: Neu5Ac(a2-8)Neu5Ac(a2-3)[Gal(b1-3)GalNAc(b1-4)]Gal(b1-4)Glc
# How it was run: as §1
# [8] = molecular target: Neu5Ac(a2-8)Neu5Ac(a2-3)[GalNAc(b1-4)]Gal(b1-4)Glc
# How it was run: as §1
# [9] = molecular target: Neu5Ac(a2-8)Neu5Ac(a2-8)Neu5Ac
# How it was run: as §1
# [10] = molecular target: Neu5Ac(a2-8)Neu5Ac(a2-8)Neu5Ac(a2-3)Gal(b1-4)Glc
# How it was run: as §1
# [11] = molecular target: Neu5Ac(a2-8)Neu5Ac(a2-8)Neu5Ac(a2-3)[Gal(b1-3)GalNAc(b1-4)]Gal(b1-4)Glc
# How it was run: as §1
# [12] = molecular target: Neu5Ac(a2-8)Neu5Ac(a2-8)Neu5Ac(a2-3)[GalNAc(b1-4)]Gal(b1-4)Glc
# How it was run: as §1
# [13] = molecular target: Neu5Ac(a2-8)Neu5Ac(a2-8)Neu5Ac(a2-8)Neu5Ac(a2-3)[GalNAc(b1-4)]Gal(b1-4)Glc
# How it was run: as §1
# [14] = molecular target: Neu5Ac(a2-8)Neu5Gc(a2-3)Gal(b1-4)GlcNAc
# How it was run: as §1
# [15] = molecular target: Neu5Ac(b2-6)Gal(b1-4)GlcNAc
# How it was run: as §1
# Neu5Ac(b2-6)GalNAc = molecular target: Neu5Ac(b2-6)GalNAc
# How it was run: as §1
# [16] = molecular target: Neu5Ac9Ac(a2-3)Gal(b1-3)GlcNAc
# How it was run: as §1
# [17] = molecular target: Neu5Ac9Ac(a2-3)Gal(b1-4)GlcNAc
# How it was run: as §1
# [18] = molecular target: Neu5Ac9Ac(a2-6)Gal(b1-4)GlcNAc
# How it was run: as §1
# [19] = molecular target: Neu5Gc(a2-3)Gal(b1-3)GlcNAc
# How it was run: as §1
# [20] = molecular target: Neu5Gc(a2-3)Gal(b1-3)[Fuc(a1-4)]GlcNAc
# How it was run: as §1
# Neu5Gc(a2-3)Gal(b1-4)Glc = molecular target: Neu5Gc(a2-3)Gal(b1-4)Glc
# How it was run: as §1
# [21] = molecular target: Neu5Gc(a2-3)Gal(b1-4)GlcNAc
# How it was run: as §1
# [22] = molecular target: Neu5Gc(a2-3)Gal(b1-4)GlcNAc(b1-3)Gal(b1-4)GlcNAc(b1-2)Man(a1-3)[Neu5Gc(a2-3)Gal(b1-4)GlcNAc(b1-3)Gal(b1-4)GlcNAc(b1-2)Man(a1-6)]Man(b1-4)GlcNAc(b1-4)GlcNAc
# How it was run: as §1
# [23] = molecular target: Neu5Gc(a2-3)Gal(b1-4)[Fuc(a1-3)]GlcNAc
# How it was run: as §1
# [24] = molecular target: Neu5Gc(a2-6)Gal(b1-4)GlcNAc
# How it was run: as §1
# Neu5Gc(a2-6)GalNAc = molecular target: Neu5Gc(a2-6)GalNAc
# How it was run: as §1
# [25] = molecular target: Neu5Gc(a2-8)Neu5Ac(a2-3)Gal(b1-4)GlcNAc
# How it was run: as §1
# [26] = molecular target: Neu5Gc(a2-8)Neu5Gc(a2-3)Gal(b1-4)GlcNAc
# How it was run: as §1
# [27] = molecular target: Neu5Gc(a2-8)Neu5Gc(a2-3)Gal(b1-4)GlcNAc(b1-3)Gal(b1-4)GlcNAc
# How it was run: as §1
# [28] = molecular target: Neu5Gc(a2-8)Neu5Gc(a2-6)Gal(b1-4)GlcNAc
# How it was run: as §1
# [29] = molecular target: Neu5Gc(b2-6)Gal(b1-4)GlcNAc
# How it was run: as §1
binder,measurement,setting,value
B1,glycan array binding signal (z-score),[1],-0.247
same,glycan array binding signal (z-score),[2],-0.244
same,glycan array binding signal (z-score),Neu5Ac(a2-8)Neu5Ac,-0.238
same,glycan array binding signal (z-score),[3],-0.246
same,glycan array binding signal (z-score),[4],-0.252
same,glycan array binding signal (z-score),[5],-0.245
same,glycan array binding signal (z-score),[6],-0.248
same,glycan array binding signal (z-score),[7],-0.25
same,glycan array binding signal (z-score),[8],-0.245
same,glycan array binding signal (z-score),[9],-0.249
same,glycan array binding signal (z-score),[10],-0.245
same,glycan array binding signal (z-score),[11],-0.226
same,glycan array binding signal (z-score),[12],-0.23
same,glycan array binding signal (z-score),[13],-0.245
same,glycan array binding signal (z-score),[14],-0.246
same,glycan array binding signal (z-score),[15],-0.237
same,glycan array binding signal (z-score),Neu5Ac(b2-6)GalNAc,-0.245
same,glycan array binding signal (z-score),[16],-0.244
same,glycan array binding signal (z-score),[17],-0.224
same,glycan array binding signal (z-score),[18],-0.245
same,glycan array binding signal (z-score),[19],-0.242
same,glycan array binding signal (z-score),[20],-0.241
same,glycan array binding signal (z-score),Neu5Gc(a2-3)Gal(b1-4)Glc,-0.237
same,glycan array binding signal (z-score),[21],-0.238
same,glycan array binding signal (z-score),[22],-0.242
same,glycan array binding signal (z-score),[23],-0.243
same,glycan array binding signal (z-score),[24],-0.242
same,glycan array binding signal (z-score),Neu5Gc(a2-6)GalNAc,-0.233
same,glycan array binding signal (z-score),[25],-0.253
same,glycan array binding signal (z-score),[26],-0.236
same,glycan array binding signal (z-score),[27],-0.245
same,glycan array binding signal (z-score),[28],-0.252
same,glycan array binding signal (z-score),[29],-0.237
